Variants at the floor of the assay are shown more often than the library holds them.
B1: tRNA (parent)
chain: CUCUCGGUAGCCAAGUUGGUUUAAGGCGCAAGACUUUAAUUUAUCACUACGAAAUCUUGAGAUCGGGCGUUCGACUCGCCCCCGGGAGAUUUUUUCCUCGAGCAA

Variants of: B1
Test: nonsense suppression (GFP-seq) (ratio to wild type); higher = more function; SUP4oc tRNA, yeast GFP reporter sort-seq
Outline: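 Nonsense suppression (GFPSEQ) is the median GFP/RFP ratio of each sorting bin, weighted by the variant's estimated share of cells in that bin and expressed relative to the unmutated parent tRNA. Yeast strains carried genome-integrated variants of an ochre-suppressor tRNA from a library with ~3% random mutations, plus a galactose-driven GFP ochre reporter and RFP, and were grown in raffinose/galactose medium containing 80 mg/L adenine. Cells were sorted into GFP/RFP bins, each bin was Illumina-sequenced (phred ≥30), and variants were kept only with ≥100 reads and ≥30 cells.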

| Variant | nonsense suppression |
| --- | --- |
| U57A G84A A89G | ≤ 0.026 |
| U58A G69C | ≤ 0.026 |
| U57A U63C | 0.0744 |
| C56A U71G C82A | ≤ 0.026 |
| U55G G66A C81A | ≤ 0.026 |
| U58G G59U G65A | ≤ 0.026 |
| C56A G84C | ≤ 0.026 |
| C56G G67U A87G | ≤ 0.026 |
| G59A G88C | ≤ 0.026 |
| U57C U76A | ≤ 0.026 |
| U58G U70A | ≤ 0.026 |
| U57C G66U G67C A87C | ≤ 0.026 |
| G59A G85C | ≤ 0.026 |
| U57C C83U A87C | ≤ 0.026 |
| U58G G66C C80G | 0.0324 |
| U55G A74C | ≤ 0.026 |
| U55G A74G | ≤ 0.026 |
| U58C C68U C77A C79A | ≤ 0.026 |
| C56A U70G | ≤ 0.026 |
| C56U G69A | ≤ 0.026 |
| G59A A87C | ≤ 0.026 |
| C56A U57A G65A G67C C81G | ≤ 0.026 |
| G59A U71C | ≤ 0.026 |
| G59A C72U C79G | ≤ 0.026 |

| Variant | nonsense suppression |
| --- | --- |
| U55C U58A A74C C81G G86U | ≤ 0.026 |
| G59C C79G | ≤ 0.026 |
| U57G U76C | ≤ 0.026 |
| U57A G59A U70C A74C | ≤ 0.026 |
| U58A G67U | ≤ 0.026 |
| U55G C56G G78A C81U | ≤ 0.026 |
| C56U A74U | ≤ 0.026 |
| U57C G67A C77A | ≤ 0.026 |
| U58G G66C U71C G78U | ≤ 0.026 |
| U57G C72G | ≤ 0.026 |
| G59C G66A C79G | ≤ 0.026 |
| U58G C68U | ≤ 0.026 |
| U58G G59A | ≤ 0.026 |
| G59C C75G U76G C79A C83A | ≤ 0.026 |
| C56A U70A A89U | ≤ 0.026 |
| U58G G61A | ≤ 0.026 |
| U57A U58C G84C | ≤ 0.026 |
| U58A C72U | ≤ 0.026 |
| U58A C72G | ≤ 0.026 |
| U55G G59A | ≤ 0.026 |
| U58C G61U | ≤ 0.026 |
| G59C C72A G85U | ≤ 0.026 |
| U58G U71A G73A C82G | ≤ 0.026 |
| U58A G66U G86U | ≤ 0.026 |

| Variant | nonsense suppression |
| --- | --- |
| C56A G88U | ≤ 0.026 |
| C56A G88A | ≤ 0.026 |
| C56A G66A A89C | ≤ 0.026 |
| U58G G61A C82G | ≤ 0.026 |
| U55C G67U | ≤ 0.026 |
| U58G A74U C75A | ≤ 0.026 |
| U55G C64G | ≤ 0.026 |
| C56G U57G C77U | ≤ 0.026 |
| U57A G86A | ≤ 0.026 |
| U55G A60C | ≤ 0.026 |
| U57A U76C A87C | ≤ 0.026 |
| C56U A89C | ≤ 0.026 |
| U57A G67A | ≤ 0.026 |
| U57A G67U | ≤ 0.026 |
| U57G U58A | ≤ 0.026 |
| U55G U57G A87C | ≤ 0.026 |
| C56A G59U G66C | ≤ 0.026 |
| U57G G73U | ≤ 0.026 |
| U57G G73C | ≤ 0.026 |
| U57G G59A G78C | ≤ 0.026 |
| G59A G61C G65A G67A G78A A89C | ≤ 0.026 |
| G59A A89G | ≤ 0.026 |
| U57A G65C G86C | ≤ 0.026 |
| U57A G61U A87G | ≤ 0.026 |

| Variant | nonsense suppression |
| --- | --- |
| C56A G61A | ≤ 0.026 |
| U58G A60U G73A G88C | ≤ 0.026 |
| C56U U58G G88A | ≤ 0.026 |
| U57G C72A C77G | ≤ 0.026 |
| G59U A62C A89G | ≤ 0.026 |
| U58G C77A | ≤ 0.026 |
| U58G C77G | ≤ 0.026 |
| G59A A60C C80G | ≤ 0.026 |
| U55G A87U | ≤ 0.026 |
| U57G G78A | 0.0374 |
| U57G A87C | ≤ 0.026 |
| U57C C72U C75U | ≤ 0.026 |
| U55G G78C | ≤ 0.026 |
| U55G G78U | ≤ 0.026 |
| U58G C83G | ≤ 0.026 |
| U58G C83U | ≤ 0.026 |
| U57C U58A G61U | ≤ 0.026 |
| C56A A62U | ≤ 0.026 |
| U55C U57A G69U | ≤ 0.026 |
| U57C C79U | ≤ 0.026 |
| U57C C79A | ≤ 0.026 |
| G59A G66C | ≤ 0.026 |
| U57G G84C | ≤ 0.026 |
| G59C G66U U70G | ≤ 0.026 |

| Variant | nonsense suppression |
| --- | --- |
| C56A G59C C79A | ≤ 0.026 |
| C56U G59U U63C | ≤ 0.026 |
| C56A C72A | ≤ 0.026 |
| C56A G86U G88C | ≤ 0.026 |
| U57C U70A G85C G86U | ≤ 0.026 |
| U58C G65C G86U | ≤ 0.026 |
| U58A A60G C80A | ≤ 0.026 |
| U57C G61A C64A G67A G88U | ≤ 0.026 |
| U57A A87U | ≤ 0.026 |
| U55G G69C C79A | ≤ 0.026 |
| U57G C68G C75G | ≤ 0.026 |
| G59U C64A G73C C77A | ≤ 0.026 |
| U55G G61U | ≤ 0.026 |
| U57C G67C U70C U71G C77A | ≤ 0.026 |
| C56G G61U U70A | ≤ 0.026 |
| U57G G65A | ≤ 0.026 |
| U57G G65U | ≤ 0.026 |
| U57G G61A | ≤ 0.026 |
| U57C U70A A74C | ≤ 0.026 |
| C56G U71C C80U | ≤ 0.026 |
| C56G U71C C80A | ≤ 0.026 |
| C56G A62C A89C | ≤ 0.026 |
| G59A C77U | ≤ 0.026 |
| U58A A62G G78C C82U | ≤ 0.026 |

| Variant | nonsense suppression |
| --- | --- |
| U57C A74C U76G A87U | ≤ 0.026 |
| C56A G65C U76C | ≤ 0.026 |
| G59C C72A G78C G85C | ≤ 0.026 |
| U57A C72G G73A | ≤ 0.026 |
| G59A C81A | ≤ 0.026 |
| G59U A87U | ≤ 0.026 |
| U57G A60G G69A C72G | ≤ 0.026 |
| C56A U63G C80G | ≤ 0.026 |
| U58A A62C | ≤ 0.026 |
| C56G G66C | ≤ 0.026 |
| U55G G61C A74U G84C | ≤ 0.026 |
| U58G G59U A60G | ≤ 0.026 |
| C56G G65A | ≤ 0.026 |
| G59C G84C | ≤ 0.026 |
| G59C G84A | ≤ 0.026 |
| U58G G66A G86C | ≤ 0.026 |
| U55C U70C | ≤ 0.026 |
| C56G C79U C82U | ≤ 0.026 |
| U58C A60C U63A | ≤ 0.026 |
| U58A C83G | ≤ 0.026 |
| G59A C82G G88A | ≤ 0.026 |
| U55C U70C C79G | ≤ 0.026 |
| C56U U70C C72G G78U | ≤ 0.026 |
| G59C G66A C68G | ≤ 0.026 |

| Variant | nonsense suppression |
| --- | --- |
| U58G G61A U63C G78A | ≤ 0.026 |
| U55G U70A | ≤ 0.026 |
| U55G U70G | ≤ 0.026 |
| C56A A89G | ≤ 0.026 |
| C56G G78A | ≤ 0.026 |
| U57A C79A A87U | ≤ 0.026 |
| U57A C79A A87G | ≤ 0.026 |
| C56G G61A C83G | ≤ 0.026 |
| U58G C64G C80A | ≤ 0.026 |
| C56G C72A | ≤ 0.026 |
| U57A U76C A89G | ≤ 0.026 |
| U57A U76C A89U | ≤ 0.026 |
| U55G C56A | ≤ 0.026 |
| U57C G66C G67A | ≤ 0.026 |
| C56G C83A | ≤ 0.026 |
| U57G C72A C77A A87U | ≤ 0.026 |
| U57C A62C | ≤ 0.026 |
| U58C G61U U63C | ≤ 0.026 |
| U57A U70G | ≤ 0.026 |
| U57A U70C | ≤ 0.026 |
| G59C G65A | ≤ 0.026 |
| U57C A62U G84A | ≤ 0.026 |
| C56A A62C C77A G84A | ≤ 0.026 |

From the RNAGym collection of RNA variant scans (doi:10.1101/gad.245936.114)
